# According to publication PMC12040169 (PLOS Biology, 2025):
# The other results are listed elsewhere or left out.
# System: T1, C. trachomatis L2/434/Bu expressing GFP (CTL2-GFP)
# T1 construct: L2/434/Bu GFP intracellular growth in HeLa cells
# Design: species or system HeLa; C. trachomatis total inclusion area by high-content imaging, normalised to DMSO
# Conditions: total inclusion area; 28.5 h, 10 µM; inhibitor
# In short: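 Imaging read-out: GFP inclusions and Hoechst nuclei captured by high-content imaging after fixation. Inclusion area/number = chlamydial growth; nuclei count = host cell viability. MIC calculated per earlier method.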
row,Structure (SMILES),% of control remaining
1,CNC(=O)C1(Cc2cccc(-c3cccs3)c2)CCN(C(=O)c2ccccc2)CC1 [CBK285720],112.707
2,O=C(O)c1ccccc1C(=O)N1CCC2(CC1)OCCc1c2[nH]c2ccccc12 [CBK046981],103.948
3,O=C1CC[C@@H](NCc2cccnc2)[C@H](c2cc(F)cc(F)c2)N1 [CBK283130],107.049
4,Cc1ccc(Nc2nc(N)nc(-c3cc4ccccc4o3)n2)cc1 [CBK288222],60.1459
5,O=C(NCCN1CCCCC1)C1CC(=O)N(CCc2ccccc2)C1 (stereo not shown) [CBK305986],31.8036
6,O=C(COc1ccc(F)cc1F)NNC(=S)NC1CCCCC1 [CBK266859],104.055
7,O=C(O)CCC(=O)N1N=C2C(=Cc3cccc([N+](=O)[O-])c3)CCCC2C1c1cccc([N+](=O)[O-])c1 (stereo not shown) [CBK296071],111.457
8,CC(=O)NCCSc1ncccc1C(F)(F)F [CBK105296],93.0089
9,CCCCOc1ccc(C(=O)N/C(=C/c2ccco2)C(=O)Nc2cccc(C(=O)O)c2)cc1 [CBK300491],76.8319
10,COc1cc(-c2cn3ccnc3c(N[C@@H]3CCN(Cc4ccccc4)C3)n2)cc(OC)c1OC [CBK037385],104.451
11,N#Cc1ccccc1-c1ccc(CSc2cccs2)cc1 [CBK002638],80.902
12,COc1cccc(N2CC(C(=O)Nc3cccc(C(=O)O)c3)CC2=O)c1 (stereo not shown) [CBK286612],77.5668
13,c1nc(OCCN2CCOCC2)cc(N2CCCN(CCN3CCOCC3)CC2)n1 [CBK083647],90.0672
14,COc1c(C)cc(-c2nc(C)nc(C)c2C)cc1C [CBK307506],67.2704
15,Nc1nnc(SCc2ccc(Br)cc2)s1 [CBK026356],59.4973
16,O=C(Nc1ncc(Cc2ccc(F)cc2)s1)c1ccc(-c2ccc(F)cc2)o1 [CBK300522],59.005
17,Cc1ccn(CCNC(=O)c2ccc3c(C)c(C)[nH]c3c2)n1 [CBK282519],101.796
18,CN(CCc1ccccn1)Cc1cc(Br)cs1 [CBK021314],97.5298
19,Cc1sc2nc(SCC(=O)Nc3ccc(S(N)(=O)=O)cc3)n(-c3ccccc3)c(=O)c2c1C [CBK266600],104.549
20,COc1cc(C)c(NC(=O)C(=S)NCc2ccco2)cc1C [CBK268582],108.84
21,FCCOc1cncc(Cl)n1 [CBK113553],103.69
22,CCOc1ccccc1C(=O)N1CCCCC1c1ncc(C(=O)Nc2ccccc2)c(C)n1 (stereo not shown) [CBK285840],73.034
